The source gives no read counts; variants with many changes may rest on few reads.
B1: CPEB3 Ribozyme (parent)
chain: UAACAGGGGGCCACAGCAGAAGCGUUCACGUCGCAGCCCCUGUCAGAUUCUGGUGAAUCUGCGAAUUCUGCUGUAUAUCUC

Variants of: B1
Test: self-cleavage, relative activity (ratio to wild type); higher = more cleavage; in vitro, sequencing
How it was run: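 Libraries of CPEB3 self-cleaving ribozyme mutants came from rounds of error-prone PCR and carried barcodes, which DNA sequencing matched to variants. In vitro transcription used T7 RNA polymerase at 37°C for 5 hours, with a further 15 min in DNase I before EDTA stopped the reaction; the ribozymes cleaved during both steps. The RNA was reverse transcribed with template switching and sequenced on Illumina. Relative activity is the cleaved/total read fraction of a variant divided by that of the unmutated ribozyme, averaged over three batches with at least 5 reads.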

Variant	self-cleavage
UAACAGGGGGCCACAGCAGAAGCGUUCACGCCGCAGCCGCAGUCAGAUUCUGGUGAAUCUGCGAAUUCUGCUGUAUAUCUC [U31C C39G U41A]	0.24
UAACAGGGGGCCACAGCAGAAGCGUUCACGCCGCAGCCCCUGUCAGAUUCUGGUGAAUCUGCGGACUCUGCUGUAUAUCUC [U31C A64G U66C]	0.5
UAACAGGGGGCCACAGCAGAAGCGUUCACGCCGCAGCCUCUGUCAGAUCCUGGUGAAUCUGCGAAUUCUGCUGUAUAUCUC [U31C C39U U49C]	0.24
UAACAGGGGGCCACAGCAGAAGCGUUCACGCCGCAGCCCCUGUCAGAUUCUGGUGAAUCUGCGAAUUCUGCUGUAUGACUC [U31C A77G U78A]	0.87
UAACAGGGGGCCACAGCAGAAGCGUUCACGCCGCAGCCCCUGUCAGAUUCUGGUGAAUCUGCGAGUUUUGCUGUAUAUCUC [U31C A65G C68U]	0.14
UAACAGGGGGCCACAGCAGAAGCGUUCACGCCGCAGCCCCUGUCAGAUUCUGGUGAAUCUGCGUAUUCUGCCGUAUAUCUC [U31C A64U U72C]	0.16
UAACAGGGGGCCACAGCAGAAGCGUUCACGCCGCAGCCCCUGUCAGAUUCUGGUGAAUCUGCGAGUUCUGCUGUAUAUCAC [U31C A65G U80A]	0.42
UAACAGGGGGCCACAGCAGAAGCGUUCACGCCGCAGCCACUGUCAGAUUCUGGUGAAUCCGCGAAUUCUGCUGUAUAUCUC [U31C C39A U60C]	0.09
UAACAGGGGGCCACAGCAGAAGCGUUCACGCCGCAGCCCUCGUCAGAUUCUGGUGAAUCCGCGAAUUCAGCUGUAUAUCUC [U31C C40U U41C U60C U69A]	0.32
UAACAGGGGGCCACAGCAGAAGCGUUCACGCCGCAGACCCUGUCAGACUCUGGUGUAUCUGCGAAUUCUGCUGUAUAUCUC [U31C C37A U48C A56U]	0.12
UAACAGGGGGCCACAGCAGAAGCGUUCACGCAGCAGCCCCUGUCUGAUUCCGGUGAAUCUGCGAGUUCUGCUGCAUAUCUC [U31C C32A A45U U51C A65G U74C]	0.08
UAACAGGGGGCCACAGCAGAAGCGUUCACGCGGCAGCCCCUGCCAGAUUCUGGUGAAUCUGCGAAUUCUGCUGUAUAUCUC [U31C C32G U43C]	0.12
UAACAGGGGGCCACAGCAGAAGCGUUCACGCCGCAGCCCUUGUCAGGUUCUGGUGAAUCUGCGAAUUCUGCUGUAUACCUC [U31C C40U A47G U78C]	0.24
UAACAGGGGGCCACAGCAGAAGCGUUCACGCGGCAGCCCCCGUCAGAUUCUGGUGAAUCUGCGAAUUCCGGUGUAUACCUC [U31C C32G U41C U69C C71G U78C]	0.11
UAACAGGGGGCCACAGCAGAAGCGUUCACGCCGUAGACCCUGUCAGAUUCUGGUGAAUCGGCGAAUUCUGCUGUAUAUCUC [U31C C34U C37A U60G]	0.07
UAACAGGGGGCCACAGCAGAAGCGUUCACGCUGCAGCCCCUGUCUGAUUCUGGCGAAUCUGCGAAUUCUGCUGUAUACCUC [U31C C32U A45U U54C U78C]	0.04
UAACAGGGGGCCACAGCAGAAGCGUUCACGCCGCAGCCCGCGUCAGAUUCUGGUGAAUCAGCGAAUUCCGCUGUAUAUCUC [U31C C40G U41C U60A U69C]	0.18

Variant	self-cleavage
UAACAGGGGGCCACAGCAGAAGCGUUCACGCCGGAGCCCCUGUCAGAUUCUGGAGAAUCUGCGAAUUCUGCUGUAUAUCUC [U31C C34G U54A]	0.39
UAACAGGGGGCCACAGCAGAAGCGUUCACGCCGCAGCCCCUGUCAGAUUCUGGUGAAUCUGCGCGUUCUGCUGUAUAUCAC [U31C A64C A65G U80A]	0.09
UAACAGGGGGCCACAGCAGAAGCGUUCACGCUGCAGCCCCUGUCAGAUUCUGGUGAAUCUGCGGAUUCUGCUGUAUAUCUC [U31C C32U A64G]	0.37
UAACAGGGGGCCACAGCAGAAGCGUUCACGCAGCAGCCCCUGUCAGAUUCUGGUGAAUCUGCGAAUCUUGCUGAAUAUCUC [U31C C32A U67C C68U U74A]	0.06
UAACAGGGGGCCACAGCAGAAGCGUUCACGCCGCAGACCCUGUCAGAUUCUGGUGUAUCUGCGAAUUCUGCUGUAUAUCUC [U31C C37A A56U]	0.11
UAACAGGGGGCCACAGCAGAAGCGUUCACGCCGCAGCCCUUGACAGAUUCUGGUGAAUCUGCGAAUUCUGCUGUAUACCUC [U31C C40U U43A U78C]	0.5
UAACAGGGGGCCACAGCAGAAGCGUUCACGCCGAAGCCCCUGUCAGAUUCUGGCGAAUCCGCGAAUUCUGCUGUAUAUCUC [U31C C34A U54C U60C]	0.13
UAACAGGGGGCCACAGCAGAAGCGUUCACGCCGCAGCUCCUGUCAGAUUCUGGUGAAUCUGCGUAUUCUGCUGUAUAUCCC [U31C C38U A64U U80C]	0.15
UAACAGGGGGCCACAGCAGAAGCGUUCACGCCGCAGCACCUGUCAGAUUCUGGUGAGUCUGCGAAUUCUGCUGUAUAUCUC [U31C C38A A57G]	0.07
UAACAGGGGGCCACAGCAGAAGCGUUCACGCCGCAGCCCCUGUCAGAUUCUGGUGAAUCUGCGAAUUCUGCUGUAUUCCUC [U31C A77U U78C]	0.93
UAACAGGGGGCCACAGCAGAAGCGUUCACGCCGCAGCCCUCGUCAGGUUCUGGUGGAUCAGCGAAUUCUGCUGUAUAUCUC [U31C C40U U41C A47G A56G U60A]	0.06
UAACAGGGGGCCACAGCAGAAGCGUUCACGCCGCAGCCCCUGUCAGAUUCUGGUGAAUCUGCGAAUUCUGCUGUUUACCUC [U31C A75U U78C]	0.88
UAACAGGGGGCCACAGCAGAAGCGUUCACGCCGCAGCCUCUGUCUGGUUCUGGUGAAUCUGCGAAUUCUGCUGUAUAUCUC [U31C C39U A45U A47G]	0.1
UAACAGGGGGCCACAGCAGAAGCGUUCACGCUGCAGCCCCCGUCAGAUUCUGGUGAAUCAGCGAAUUCCGCUGUAUAUCUC [U31C C32U U41C U60A U69C]	0.08
UAACAGGGGGCCACAGCAGAAGCGUUCACGCUGCAGCCCCUGACAGAUUCUGGAGAAUCUGCGAAUUCUGCUGUAUAUCUC [U31C C32U U43A U54A]	0.07
UAACAGGGGGCCACAGCAGAAGCGUUCACGCCGCAGCCCUUGACUGAUUCUGGUGAAUCUGCGAAUUUCGCUGUACAUCUC [U31C C40U U43A A45U C68U U69C U76C]	0.03
UAACAGGGGGCCACAGCAGAAGCGUUCACGCCGCAGUCCCUGUCAGAUACUGGUGAAUCCGCGAAUUCCGCUGUAUAUCUC [U31C C37U U49A U60C U69C]	0.1
